The IC50 comes from the fitted curve, where viability falls to half of the control; where the fit passes the top or lowest dose, that dose stands as a limit. AUC is the area under the same curve over the 256-fold range up to the top dose, as a fraction; the more sensitive the line, the further below 1.
Compound: FC(F)c1nc2ccccc2n1-c1nc(N2CCOCC2)nc(N2CCOCC2)n1 [ZSTK474]
Test: Viability of human cancer cell lines after 72 h of drug (GDSC screen)
Description: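 Human cancer cell lines in 384-well plates, medium with 10% serum, drug for 72 h over a 256-fold dose range (nine 2-fold or five 4-fold steps up to the top dose). Adherent lines were fixed and stained with the nucleic acid dye Syto60, suspension lines read with resazurin; signal relative to control wells, capped at 0 and 100%. One two-parameter sigmoid per drug and line, fitted in a mixed model over all curves with the slope shared within a line.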

Cell Line | AUC | IC50 [nM]
BL-41 (Burkitt lymphoma, suspension, top dose 5.12 µM) | 0.183 | 50.1
BPH-1 (prostate, adherent, top dose 5.12 µM) | 0.418 | 186
BT-20 (breast, adherent, top dose 5.12 µM) | 0.735 | 1800
BT-474 (breast, adherent, top dose 5.12 µM) | 0.572 | 515
BT-483 (breast, adherent, top dose 5.12 µM) | 0.512 | 355
BV-173 (chronic myeloid leukaemia, suspension, top dose 5.12 µM) | 0.815 | 2400
Becker (glioma, adherent, top dose 5.12 µM) | 0.654 | 910
BxPC-3 (pancreas, adherent, top dose 5.12 µM) | 0.785 | 2480
C2BBe1 (large intestine, adherent, top dose 5.12 µM) | 0.808 | 3080
C3A (liver, adherent, top dose 5.12 µM) | 0.981 | > 5120
C32 (melanoma, adherent, top dose 5.12 µM) | 0.983 | > 5120
C-4-I (cervix, adherent, top dose 5.12 µM) | 0.977 | > 5120
C-33-A (cervix, adherent, top dose 5.12 µM) | 0.778 | 2080
CA46 (Burkitt lymphoma, suspension, top dose 5.12 µM) | 0.411 | 179
CADO-ES1 (Ewing sarcoma, suspension, top dose 5.12 µM) | 0.509 | 338
CAKI-1 (kidney, adherent, top dose 5.12 µM) | 0.692 | 1460
CAL-12T (non-small cell lung carcinoma, adherent, top dose 5.12 µM) | 0.612 | 677
CAL-27 (head and neck, adherent, top dose 5.12 µM) | 0.878 | > 5120
CAL-29 (bladder, adherent, top dose 5.12 µM) | 0.737 | 1620
CAL-33 (head and neck, adherent, top dose 5.12 µM) | 0.667 | 935
CAL-39 (cervix, adherent, top dose 5.12 µM) | 0.899 | > 5120
CAL-51 (breast, adherent, top dose 5.12 µM) | 0.907 | > 5120
CAL-54 (kidney, adherent, top dose 5.12 µM) | 0.925 | > 5120
CAL-62 (thyroid, adherent, top dose 5.12 µM) | 0.832 | 3050
CAL-72 (osteosarcoma, adherent, top dose 5.12 µM) | 0.984 | > 5120
CAL-78 (chondrosarcoma, adherent, top dose 5.12 µM) | 0.986 | > 5120
CAL-85-1 (breast, adherent, top dose 5.12 µM) | 0.822 | 4150

Cell Line | AUC | IC50 [nM]
CAL-120 (breast, adherent, top dose 5.12 µM) | 0.719 | 1620
CAL-148 (breast, suspension, top dose 5.12 µM) | 0.904 | > 5120
CAMA-1 (breast, adherent, top dose 5.12 µM) | 0.813 | 3700
CAPAN-1 (pancreas, adherent, top dose 5.12 µM) | 0.874 | > 5120
CAS-1 (glioma, adherent, top dose 5.12 µM) | 0.91 | > 5120
CCF-STTG1 (glioma, adherent, top dose 5.12 µM) | 0.986 | > 5120
CCK-81 (large intestine, adherent, top dose 5.12 µM) | 0.69 | 1050
CCRF-CEM (lymphoblastic leukaemia, suspension, top dose 5.12 µM) | 0.392 | 170
CESS (acute myeloid leukaemia, suspension, top dose 5.12 µM) | 0.354 | 135
CFPAC-1 (pancreas, adherent, top dose 5.12 µM) | 0.842 | 4380
CGTH-W-1 (thyroid, adherent, top dose 5.12 µM) | 0.916 | > 5120
CHL-1 (melanoma, adherent, top dose 5.12 µM) | 0.485 | 292
CHP-134 (neuroblastoma, suspension, top dose 5.12 µM) | 0.826 | 4310
CHP-212 (neuroblastoma, adherent, top dose 5.12 µM) | 0.662 | 868
CHSA0011 (chondrosarcoma, adherent, top dose 5.12 µM) | 0.868 | > 5120
CHSA0108 (chondrosarcoma, adherent, top dose 5.12 µM) | 0.929 | > 5120
CHSA8926 (chondrosarcoma, adherent, top dose 5.12 µM) | 0.863 | > 5120
CL-11 (large intestine, adherent, top dose 5.12 µM) | 0.972 | > 5120
CMK (acute myeloid leukaemia, suspension, top dose 5.12 µM) | 0.425 | 207
COLO-205 (large intestine, suspension, top dose 5.12 µM) | 0.861 | 4240
COLO-320-HSR (large intestine, suspension, top dose 5.12 µM) | 0.691 | 1010
COLO-668 (small cell lung carcinoma, adherent, top dose 5.12 µM) | 0.758 | 1780
COLO-678 (large intestine, semi-adherent, top dose 5.12 µM) | 0.961 | > 5120
COLO-679 (melanoma, adherent, top dose 5.12 µM) | 0.859 | 5110
COLO-680N (oesophagus, adherent, top dose 5.12 µM) | 0.922 | > 5120
COLO-684 (endometrium, suspension, top dose 5.12 µM) | 0.384 | 147
COLO-783 (melanoma, adherent, top dose 5.12 µM) | 0.963 | > 5120

Cell Line | AUC | IC50 [nM]
COLO-792 (melanoma, adherent, top dose 5.12 µM) | 0.777 | 2020
COLO-800 (melanoma, adherent, top dose 5.12 µM) | 0.811 | 2620
COLO-824 (breast, adherent, top dose 5.12 µM) | 0.907 | > 5120
COLO-829 (melanoma, adherent, top dose 5.12 µM) | 0.721 | 1860
COR-L23 (large cell lung carcinoma, adherent, top dose 5.12 µM) | 0.774 | 1950
COR-L88 (small cell lung carcinoma, adherent, top dose 5.12 µM) | 0.964 | > 5120
COR-L95 (small cell lung carcinoma, adherent, top dose 5.12 µM) | 0.906 | > 5120
COR-L105 (lung adenocarcinoma, adherent, top dose 5.12 µM) | 0.608 | 679
COR-L279 (small cell lung carcinoma, suspension, top dose 5.12 µM) | 0.728 | 1300
COR-L303 (small cell lung carcinoma, suspension, top dose 5.12 µM) | 0.582 | 531
COR-L311 (small cell lung carcinoma, suspension, top dose 5.12 µM) | 0.529 | 387
COR-L321 (lung, suspension, top dose 5.12 µM) | 0.797 | 2410
CP50-MEL-B (melanoma, adherent, top dose 5.12 µM) | 0.943 | > 5120
CP66-MEL (melanoma, adherent, top dose 5.12 µM) | 0.901 | > 5120
CPC-N (small cell lung carcinoma, suspension, top dose 5.12 µM) | 0.911 | > 5120
CS1 (bone, adherent, top dose 5.12 µM) | 0.632 | 777
CTB-1 (B-cell lymphoma, suspension, top dose 5.12 µM) | 0.823 | 4620
CTV-1 (acute myeloid leukaemia, suspension, top dose 5.12 µM) | 0.789 | 1790
CW-2 (large intestine, adherent, top dose 5.12 µM) | 0.973 | > 5120
Ca9-22 (head and neck, adherent, top dose 5.12 µM) | 0.969 | > 5120
Ca-Ski (cervix, adherent, top dose 5.12 µM) | 0.465 | 254
CaR-1 (large intestine, adherent, top dose 5.12 µM) | 0.815 | 4840
Calu-3 (lung adenocarcinoma, adherent, top dose 5.12 µM) | 0.6 | 646
Calu-6 (lung adenocarcinoma, adherent, top dose 5.12 µM) | 0.945 | > 5120
Caov-3 (ovary, adherent, top dose 5.12 µM) | 0.841 | 2940
Caov-4 (ovary, adherent, top dose 5.12 µM) | 0.625 | 833

Reference: the supplement of paper PMC4967469
